{
  "source": "PubChem BioAssay AID720506",
  "about": "(National Center for Advancing Translational Sciences (NCATS), 2013)",
  "note": "About 95 (4%) of roughly 2,300 compounds were called active. The inconclusive results got no clear call from the source; some entries with a clear call stand among them for comparison. Calls come from the whole dose curve; as a rule, active = well fitted activation curve with a large enough effect; inconclusive = small, poorly fitted or top-dose-only effect; inactive = flat fitted curve, though single readings scatter. Where the call is inconclusive, the potency comes from a doubtful curve fit. Potency is the fitted concentration of half-maximal effect; tags give direction and shape of the fitted curve.",
  "data": [
    {"target": "D(3) dopamine receptor (Homo sapiens) (UniProt P35462)", "sequence (P35462 whole entry, looked up)": "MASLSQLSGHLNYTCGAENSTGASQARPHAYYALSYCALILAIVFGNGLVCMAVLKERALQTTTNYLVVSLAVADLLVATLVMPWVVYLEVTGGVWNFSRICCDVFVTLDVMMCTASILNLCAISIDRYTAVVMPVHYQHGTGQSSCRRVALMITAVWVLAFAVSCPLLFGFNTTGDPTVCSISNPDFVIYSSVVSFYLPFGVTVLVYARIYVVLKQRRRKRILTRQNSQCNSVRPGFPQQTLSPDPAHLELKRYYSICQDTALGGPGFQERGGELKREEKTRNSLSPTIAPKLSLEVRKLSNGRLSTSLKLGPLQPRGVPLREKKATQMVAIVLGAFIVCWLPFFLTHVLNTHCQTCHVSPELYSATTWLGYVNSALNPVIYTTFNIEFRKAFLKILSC", "experiment": "qHTS of D3 Dopamine Receptor Agonist: D3 Dopamine Receptor B-arrestin Agonist Confirmatory Assay; note: nearly all actives have a fitted effect of over 70% in size;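 for activation: 100% = dopamine control response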", "settings": "DiscoveRx D3 beta-arrestin cells, luminescence, 90 min; activation: at 76.9 µM (top of the series)", "text": "D3 DARs represent a very important target for the treatment of several neuropsychiatric disorders. Indeed, one of the most promising therapeutic applications for the D3 DAR is in the area of addiction and related disorders. […] These findings have been observed with a number of addictive substances including cocaine, amphetamine, nicotine, and alcohol. […] Increased D3 DAR activity can thus lead to neuroprotective and neurorestorative actions in the CNS. […] This assay is used to confirm the activity of the identified D3 dopamine receptor agonist. Activation is the desired outcome for this assay. NIH Molecular Libraries Probe Production Centers Network [MLPCN] NIH Chemical Genomics Center [NCGC] MLPCN Grant: NS064831 Assay Submitter (PI): David Sibley\nFreshly passaged DiscoveRx D3 cells are plated in 1536 well white, solid bottom plates at a density of 1500 cells/well in 3microl of complete media. After an overnight incubation at 37 degrees C in 5% CO2, cells are loaded with 23nl of test compound from the compound library (as well as dopamine controls) using a 1536 pintool and incubated at 37 degrees C for 90 minutes. Two microliters of DiscoveRx reagent is then added to all cells, and they are incubated for an additional 30 - 60 minutes at room temperature. Following incubation, luminescence is measured on a ViewLux CCD-based luminometer reader using a 20 sec exposure time.", "values": [
      {"smiles": "c1nc(N2CCN(Cc3ccc4c(c3)OCO4)CC2)c2[nH]cnc2n1", "activation": "inactive: 16.3%"},
      {"smiles": "COc1cccc(C(=O)N2CCN(c3ccccn3)CC2)c1", "Potency": "inconclusive: 44.7 µM [activator, partial curve, poor fit]"},
      {"smiles": "O=C(NCC1CCCO1)C(=O)NCC(c1ccco1)N1CCN(c2ccccc2F)CC1", "note": "(stereo unspecified)", "Potency": "active: 31.6 µM"},
      {"smiles": "COC(=O)C1CCN(Cc2cc(=O)oc3cc(OC)ccc23)CC1", "Potency": "inconclusive: 3.55 µM [activator, full curve]"},
      {"smiles": "Fc1ccccc1CN1CCN(c2ncccn2)CC1", "Potency": "inconclusive: 1.58 µM [activator, full curve]"},
      {"smiles": "CC(=O)N1CCc2cc(C(=O)CN3CCN(c4ccccn4)CC3)ccc21", "Potency": "active: 1.58 µM"},
      {"smiles": "CC(C)=CC(=O)N1CC[C@@H](N2CCN(c3ccccc3F)CC2)[C@H](O)C1", "activation": "inactive: 21.4%"},
      {"smiles": "Oc1cc2c(cc1CN1CCN(c3ncccn3)CC1)OCO2", "Potency": "inconclusive: 1.12 µM [activator, full curve]"},
      {"smiles": "COCCNC(=S)Nc1cc2oc3ccccc3c2cc1OC", "activation": "inactive: -3.78%"},
      {"smiles": "Oc1ccc(Cl)cc1C=NCCc1ccccc1", "activation": "inconclusive: 15% [activator]"},
      {"smiles": "CC12CCC(C(=O)N(CCCCN3CCN(c4ccccn4)CC3)C1=O)C2(C)C", "note": "(stereo unspecified)", "Potency": "inconclusive: 0.0112 µM [activator, full curve]"},
      {"smiles": "O=C(CSC1=N/C(=C/c2ccc(Cl)c(Cl)c2)C(=O)N1c1ccccc1F)NC1CC1", "activation": "inactive: 20.4%"},
      {"smiles": "Cc1ccc(Cn2c(=O)c3ccccc3n3c(CCC(=O)NCCN4CCOCC4)nnc23)cc1", "activation": "inactive: -7.71%"},
      {"smiles": "O=C(CCNS(=O)(=O)c1ccccc1C(F)(F)F)N1CCCCCCC1", "activation": "inactive: 1.33%"},
      {"smiles": "Cc1ncsc1CCOC(=O)c1ccc(N2CCOCC2)c([N+](=O)[O-])c1", "Potency": "inconclusive: 10 µM [activator, full curve]"},
      {"smiles": "O=C(c1ccco1)N1CCN(CCOCCOc2cccc3ccccc23)CC1", "Potency": "active: 7.94 µM"},
      {"smiles": "FCCCOc1ccc(CN2CCN(c3ccccc3F)CC2)cc1", "Potency": "inconclusive: 0.501 µM [activator, full curve, poor fit]"},
      {"smiles": "Cc1ccc(S(=O)(=O)N2CCOCC2)cc1NC(=O)CNCc1ccccn1", "Potency": "active: 7.94 µM"},
      {"smiles": "CC(=O)CCc1ccc(OCC(O)CNCCOc2ccc(C)cc2)cc1", "note": "(stereo unspecified)", "Potency": "inconclusive: 0.562 µM [activator, full curve]"},
      {"smiles": "CN(C)S(=O)(=O)c1ccc(NC(=O)CN2CCN(c3ccccn3)CC2)cc1", "Potency": "active: 1.41 µM"},
      {"smiles": "CC(CCc1ccccc1)NCc1ccncc1", "note": "(stereo unspecified)", "Potency": "inconclusive: 3.16 µM [activator, full curve]"},
      {"smiles": "O=c1[nH]c(CN2CCN(c3ccccc3)CC2)nc2scc(-c3ccccc3)c12", "Potency": "inconclusive: 4.47 µM [activator, full curve]"},
      {"smiles": "CCc1ccc(CN2CCN(C(=O)c3ccco3)CC2)cc1", "Potency": "active: 5.62 µM"},
      {"smiles": "O=[N+]([O-])c1ccc(C(O)CN2CCN(c3ccccc3)CC2)cc1", "note": "(stereo unspecified)", "Potency": "inconclusive: 4.47 µM [activator, full curve]"},
      {"smiles": "O=C(NCCCN1CCN(c2cccc(Cl)c2)CC1)c1cccc(N2CCCC2=O)c1", "activation": "inactive: -3.56%"},
      {"smiles": "CCN1CCN(C(=O)Cn2nc(C)n3c(cc4c(OC)cccc43)c2=O)CC1", "Potency": "inconclusive: 7.08 µM [activator, full curve]"},
      {"smiles": "COc1cc(NC(=O)c2ccccc2)c(OC)cc1NC(=O)CN1CCN(c2ccccn2)CC1", "Potency": "inconclusive: 39.8 µM [activator, partial curve, poor fit]"},
      {"smiles": "O=C(CCN1CCN(c2ccccc2F)CC1)Nc1ccc(F)cc1", "Potency": "inconclusive: 0.141 µM [activator, full curve, poor fit]"},
      {"smiles": "COc1ccc(C(=O)N2CCC(N3CCN(c4ccccc4)CC3)CC2)cc1", "Potency": "inconclusive: 3.16 µM [activator, full curve]"},
      {"smiles": "CCOC(=O)C(NCCCCl)c1ccccc1", "note": "(stereo unspecified)", "activation": "inactive: -6.21%"},
      {"smiles": "CCc1ccc(/C=N/NC(=O)c2nnn(-c3nonc3N)c2C(C)C)cc1", "activation": "inactive: 1.13%"},
      {"smiles": "O=C(CN1CCN(c2ccccc2)CC1)Nc1ccc(OCc2ccccc2)cc1", "Potency": "inconclusive: 39.8 µM [activator, partial curve]"},
      {"smiles": "CN=c1scc(-c2cccs2)n1/N=C/c1ccc(O)c(O)c1O", "Potency": "active: 25.1 µM"},
      {"smiles": "O=C(CN1CCc2ccccc2C1)Nc1cccc(S(=O)(=O)N2CCCC2)c1", "Potency": "inconclusive: 14.1 µM [activator, partial curve]"},
      {"smiles": "Clc1ccc(CN2CCN(c3ncccn3)CC2)cc1Cl", "Potency": "inconclusive: 14.1 µM [activator, partial curve]"},
      {"smiles": "CCCCN(C)C(=O)C1CCN(CCCc2ccccc2)CC1", "activation": "inactive: -4.91%"},
      {"smiles": "Cc1ccc([N+](=O)[O-])c(OCCN2CCNCC2)c1", "Potency": "inconclusive: 0.891 µM [activator, full curve]"},
      {"smiles": "O=C(CN1CCN(S(=O)(=O)c2cc(Cl)ccc2Cl)CC1)c1ccc(O)c(O)c1", "Potency": "active: 35.5 µM"},
      {"smiles": "O=C(CCN1CCN(c2ccccc2)CC1)NNC(=O)c1cccc2ccccc12", "Potency": "inconclusive: 0.447 µM [activator, full curve]"},
      {"smiles": "Cc1c(CN2CC[C@@H](N3CCN(c4ccccn4)CC3)[C@H](O)C2)[nH]c2ccc(F)cc12", "Potency": "active: 28.2 µM"},
      {"smiles": "O=C(c1ccco1)N1CCN(Cc2ccccc2Br)CC1", "Potency": "inconclusive: 39.8 µM [activator, partial curve, poor fit]"},
      {"smiles": "O=C(CN1C(=O)COc2ccccc21)NCCCN1CCN(c2ccccc2F)CC1", "activation": "inactive: 1.6%"},
      {"smiles": "CCOC(=O)N1CCN(CC(=O)Nc2ccc(Oc3ccccc3)cc2)CC1", "Potency": "inconclusive: 35.5 µM [activator, partial curve]"},
      {"smiles": "CCOC(=O)C1CCCN(C2CCN(Cc3nc(-c4ccccc4)no3)CC2)C1", "note": "(stereo unspecified)", "activation": "inactive: 12.3%"},
      {"smiles": "O=S(=O)(Nc1nc2ccccc2[nH]1)c1ccc2ccccc2c1", "activation": "inactive: -30.2%"},
      {"smiles": "CC[n+]1c(-c2ccccc2)csc1Nc1c(C)n(C)n(-c2ccccc2)c1=O", "activation": "inactive: -8.31%"},
      {"smiles": "Cc1ccc(S(=O)(=O)N2CCN(C(=O)COC(=O)/C=C/c3ccccc3)CC2)c(C)c1", "activation": "inactive: -7.79%"},
      {"smiles": "CCCCc1ccc(N/C(N)=N/c2nc(C)cc(C)n2)cc1", "Potency": "inconclusive: 39.8 µM [activator, partial curve, poor fit]"},
      {"smiles": "CCOC(=O)c1c(-c2ccc(Cl)cc2)csc1NC(=O)CNCc1ccco1", "activation": "inactive: -4.16%"},
      {"smiles": "Cc1cccc(C2CN(C)CCc3c2cc(O)c(O)c3Cl)c1", "note": "(stereo unspecified)", "Potency": "inconclusive: 35.5 µM [activator, single point]"},
      {"smiles": "O=C(Cn1cncn1)N/N=C/c1cc([N+](=O)[O-])ccc1O", "activation": "inactive: 2.5%"},
      {"smiles": "CC(C(=O)Nc1cccc([N+](=O)[O-])c1)N1CCN(C/C=C/c2ccccc2)CC1", "note": "(stereo unspecified)", "activation": "inactive: 25.9%"},
      {"smiles": "C=CC[C@H]1Cc2c(cccc2[N+](=O)[O-])[C@H](CC=C)N1", "Potency": "inconclusive: 14.1 µM [activator, full curve]"},
      {"smiles": "OC(COc1cccc2ccccc12)CN1CCN(c2ccccc2)CC1", "note": "(stereo unspecified)", "Potency": "inconclusive: 3.55 µM [activator, full curve]"},
      {"smiles": "COc1ccc(C)cc1NC(=O)C(Sc1nnc(-c2cccs2)o1)c1ccccc1", "note": "(stereo unspecified)", "activation": "inactive: -14.8%"},
      {"smiles": "O=C(COc1coc(CN2CCN(c3ccccc3)CC2)cc1=O)Nc1ccccc1F", "activation": "inactive: 15.3%"},
      {"smiles": "COC(=O)c1ccc(NC(=O)CCN2CCN(c3ccccc3)CC2)cc1", "Potency": "inconclusive: 0.199 µM [activator, full curve]"},
      {"smiles": "CC(C)c1ccc(OCC(O)CN2CCN(c3ccccn3)CC2)cc1", "note": "(stereo unspecified)", "Potency": "inconclusive: 1.12 µM [activator, full curve]"},
      {"smiles": "Fc1cccc(CN2CCN(c3ncccn3)CC2)c1", "Potency": "inconclusive: 1 µM [activator, full curve]"},
      {"smiles": "COCCN=c1scc(-c2cccs2)n1/N=C/c1ccc(O)c(O)c1O", "Potency": "active: 25.1 µM"},
      {"smiles": "Nc1nc(CN2CCN(c3ccccc3F)CC2)nc(N2CCCc3ccccc32)n1", "Potency": "inconclusive: 14.1 µM [activator, full curve]"},
      {"smiles": "O=C(c1cccc2ccccc12)N1CCC(N2CCN(c3ccccc3)CC2)CC1", "Potency": "active: 1.41 µM"},
      {"smiles": "COc1ccc(CN2CCN(C(=O)c3ccco3)CC2)cc1", "Potency": "inconclusive: 0.708 µM [activator, full curve]"},
      {"smiles": "COC(=O)[C@@H](N)Cc1ccc(O)c(O)c1", "Potency": "inconclusive: 35.5 µM [activator, full curve]"},
      {"smiles": "O=C(c1ccco1)N1CCN(Cc2csc(-c3ccccc3Cl)n2)CC1", "activation": "inactive: -2.9%"},
      {"smiles": "C/C(=N\\NC(=O)C12CCC(C)(C(=O)O1)C2(C)C)c1ccccc1O", "note": "(stereo unspecified)", "Potency": "inconclusive: 70.8 µM [activator, partial curve, poor fit]"},
      {"smiles": "Oc1ccc(C2CNCc3sccc32)cc1O", "note": "(stereo unspecified)", "Potency": "active: 3.55 µM"},
      {"smiles": "Cc1c(Cc2ccccc2)c(=O)oc2c(O)c(O)ccc12", "Potency": "inconclusive: 50.1 µM [activator, single point]"},
      {"smiles": "CCCSCCCNC(=O)c1ccccc1NC(=O)C1=CSCCO1", "activation": "inactive: 2.2%"},
      {"smiles": "COc1ccc(C(=O)N=C2SC3CS(=O)(=O)CC3N2Cc2ccccc2)cc1OC", "note": "(stereo unspecified)", "Potency": "inconclusive: 31.6 µM [activator, partial curve]"},
      {"smiles": "COC(=O)C1CCN(Cc2cc(=O)oc3cc(C)c(Cl)cc23)CC1", "Potency": "active: 3.16 µM"},
      {"smiles": "O=C(c1ccc(Cl)cc1)N1CCN(CCOc2ccccc2)CC1", "Potency": "active: 0.1 µM"},
      {"smiles": "N#Cc1c(/N=C\\c2ccc(O)c([N+](=O)[O-])c2)sc2c1CCCC2", "Potency": "inconclusive: 8.91 µM [activator, full curve]"},
      {"smiles": "CCOc1ccc(NC(=S)NC(=O)c2c(Br)cnn2C)c([N+](=O)[O-])c1", "activation": "inactive: -5.14%"},
      {"smiles": "O=C(OCCN1C(=O)c2cccc3c(N4CCOCC4)ccc(c23)C1=O)c1ccccc1Cl", "Potency": "inconclusive: 50.1 µM [activator, single point]"},
      {"smiles": "COc1cc2[nH]c(=O)n(CCC(=O)NCCCN3CCN(c4ccccc4F)CC3)c(=O)c2cc1OC", "Potency": "inconclusive: 0.447 µM [activator, full curve, poor fit]"}
    ]}
  ]
}
